From the supplement of paper PMC4967469
The IC50 comes from the fitted curve, where viability falls to half of the control; fits outside the tested doses are given as limits. AUC sums up the same curve from the lowest dose to the 256-fold higher top dose: 1 means no effect, lower means more sensitive. A top dose marked as inferred is not printed in the source and was worked back from the curve model. For some of these results: An entry number marks a drug with two screens in the source, which often give different values.

Experiments:
Test in all cases: Viability of human cancer cell lines after 72 h of drug (GDSC screen)
[1] = compound: CC(C)=CC[C@@H](O)C1=CC(=O)c2c(O)ccc(O)c2C1=O [Shikonin]; conditions: top dose 16 µM; top dose inferred
Protocol: (§1)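 Human cancer cell lines in 384-well plates, medium with 10% serum, drug for 72 h over a 256-fold dose range (nine 2-fold or five 4-fold steps up to the top dose). Adherent lines were fixed and stained with the nucleic acid dye Syto60, suspension lines read with resazurin; signal relative to control wells, capped at 0 and 100%. One two-parameter sigmoid per drug and line, fitted in a mixed model over all curves with the slope shared within a line.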

[2] = compound: CNC(=O)c1ccc(Nc2cc(Nc3ccccc3S(=O)(=O)C(C)C)c3cc[nH]c3n2)nc1 [HG-5-113-01]; conditions: top dose 10 µM; top dose inferred
Protocol: as §1

[3] = compound: Cc1cc(N2CCOCC2)cc2[nH]c(-c3c(NC[C@@H](O)c4cccc(Cl)c4)cc[nH]c3=O)nc12 [BMS-536924]; conditions: top dose 4 µM; screen: GDSC drug entry 1091; top dose inferred
Protocol: as §1

[4] = compound: Cc1ccc(-n2nc(C(C)(C)C)cc2NC(=O)Nc2ccc(OCCN3CCOCC3)c3ccccc23)cc1 [BIRB 0796]; conditions: top dose 10 µM; top dose inferred
Protocol: as §1

[5] = compound: Cc1cccc(-c2[nH]c(C(C)(C)C)nc2-c2ccc3nccnc3c2)n1 [SB-525334]; conditions: top dose 20 µM; top dose inferred
Protocol: as §1

[6] = compound: NC(=O)c1ccc(N(C(N)=O)c2c(F)cccc2F)nc1-c1ccc(F)cc1F [VX-702]; conditions: top dose 2 µM; top dose inferred
Protocol: as §1

[7] = compound: O=C(c1cc(Cc2n[nH]c(=O)c3ccccc23)ccc1F)N1CCN(C(=O)C2CC2)CC1 [Olaparib]
Protocol: as §1

[8] = compound: O=C1NC(=O)c2c1c(-c1ccccc1Cl)cc1[nH]c3ccc(O)cc3c21 [Wee1 inhibitor 681640]; conditions: top dose 2 µM; top dose inferred
Protocol: as §1

[9] = top dose 5 µM, screen: GDSC drug entry 1017, top dose inferred
[10] = top dose 10 µM, screen: GDSC drug entry 1495

Cell Line	AUC [1]	IC50 [1] [µM]	AUC [2]	IC50 [2] [µM]	AUC [3]	IC50 [3] [µM]	AUC [4]	IC50 [4] [µM]	AUC [5]	IC50 [5] [µM]	AUC [6]	IC50 [6] [µM]	AUC [7, 9]	IC50 [7, 9] [µM]	AUC [7, 10]	IC50 [7, 10] [µM]	AUC [8]	IC50 [8] [µM]
H2595 (mesothelioma, adherent)	0.697	4.51	0.844	> 10	0.968	> 4	0.964	> 10	0.973	> 20	0.967	> 2	0.93	> 5	0.968	> 10	0.978	> 2
H2731 (mesothelioma, adherent)	0.845	14.2	0.792	5.27	0.92	> 4	0.893	> 10	0.883	> 20	0.984	> 2	0.984	> 5	0.982	> 10	0.952	> 2
H2795 (mesothelioma, adherent)	0.796	7.39	0.792	4.47	0.875	3.82	0.985	> 10	0.941	> 20	0.906	> 2	0.865	4.31	0.954	> 10	0.963	> 2
H2869 (mesothelioma, adherent)	0.471	0.816	0.898	> 10	0.888	> 4	0.918	> 10	0.905	> 20	0.982	> 2	0.981	> 5	0.948	> 10	0.98	> 2
HCC38 (breast, adherent)	0.5	1	0.862	9.68	0.953	> 4	0.985	> 10	0.889	> 20	0.986	> 2	0.986	> 5	0.97	> 10	0.919	> 2
HCC1419 (breast, adherent)	0.581	1.82	0.943	> 10	0.98	> 4	0.912	> 10	0.848	> 20	0.982	> 2	0.982	> 5	0.98	> 10	0.905	> 2
HCC1428 (breast, adherent)	0.772	6.78	0.931	> 10	0.983	> 4	0.982	> 10	0.977	> 20	0.984	> 2	0.977	> 5	0.971	> 10	0.967	> 2
HCC1569 (breast, adherent)	0.46	0.751	0.863	> 10	0.976	> 4	0.965	> 10	0.956	> 20	0.981	> 2	0.981	> 5	0.906	> 10	0.844	> 2
HCC1954 (breast, adherent)	0.424	0.598	0.887	> 10	0.969	> 4	0.955	> 10	0.983	> 20	0.985	> 2	0.971	> 5	0.965	> 10	0.868	> 2
HCC-56 (large intestine, adherent)	0.599	1.88	0.71	2.5	0.8	1.99	0.979	> 10	0.984	> 20	0.984	> 2	0.987	> 5	0.986	> 10	0.914	> 2
HCC-78 (lung adenocarcinoma, adherent)	0.76	6.56	0.7	2.54	0.7	1.02	0.957	> 10	0.912	> 20	0.977	> 2	0.966	> 5	0.913	> 10	0.907	> 2
HEC-1 (endometrium, adherent)	0.518	1.12	0.757	3.33	0.928	> 4	0.989	> 10	0.989	> 20	0.986	> 2	0.946	> 5	0.964	> 10	0.943	> 2
HGC-27 (stomach, adherent)	0.262	0.238	0.535	0.767	0.949	> 4	0.959	> 10	0.93	> 20	0.988	> 2	0.895	4.46	0.802	4.06	0.946	> 2
HSC-2 (head and neck, adherent)	0.26	0.219	0.735	2.75	0.932	> 4	0.986	> 10	0.987	> 20	0.989	> 2	0.982	> 5	0.931	> 10	0.963	> 2
HT55 (large intestine, adherent)	0.593	1.8	0.851	7.62	0.873	3.81	0.979	> 10	0.99	> 20	0.99	> 2	0.99	> 5	–	–	0.99	> 2
